Test [1] deals with T1, GST-C1/324 (amino-terminal half of Corto) (Drosophila melanogaster) (UniProt P41046).
T1 sequence: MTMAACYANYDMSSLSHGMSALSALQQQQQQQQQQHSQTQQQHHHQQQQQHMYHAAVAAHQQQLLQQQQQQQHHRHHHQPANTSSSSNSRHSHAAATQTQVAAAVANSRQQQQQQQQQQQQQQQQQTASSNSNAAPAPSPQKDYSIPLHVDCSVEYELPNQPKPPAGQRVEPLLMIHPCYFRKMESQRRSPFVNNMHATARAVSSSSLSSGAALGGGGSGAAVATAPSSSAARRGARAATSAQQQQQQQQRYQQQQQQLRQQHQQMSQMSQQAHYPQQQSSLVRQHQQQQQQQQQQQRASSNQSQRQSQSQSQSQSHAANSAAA
The test is described as follows: pull-down; GST-Corto fusion proteins on beads, in vitro translated 35S-CycG, autoradiography; only the target purified.

In test [2] the target is T2, GST-Corto (full-length protein) (Drosophila melanogaster) (UniProt P41046).
T2 sequence: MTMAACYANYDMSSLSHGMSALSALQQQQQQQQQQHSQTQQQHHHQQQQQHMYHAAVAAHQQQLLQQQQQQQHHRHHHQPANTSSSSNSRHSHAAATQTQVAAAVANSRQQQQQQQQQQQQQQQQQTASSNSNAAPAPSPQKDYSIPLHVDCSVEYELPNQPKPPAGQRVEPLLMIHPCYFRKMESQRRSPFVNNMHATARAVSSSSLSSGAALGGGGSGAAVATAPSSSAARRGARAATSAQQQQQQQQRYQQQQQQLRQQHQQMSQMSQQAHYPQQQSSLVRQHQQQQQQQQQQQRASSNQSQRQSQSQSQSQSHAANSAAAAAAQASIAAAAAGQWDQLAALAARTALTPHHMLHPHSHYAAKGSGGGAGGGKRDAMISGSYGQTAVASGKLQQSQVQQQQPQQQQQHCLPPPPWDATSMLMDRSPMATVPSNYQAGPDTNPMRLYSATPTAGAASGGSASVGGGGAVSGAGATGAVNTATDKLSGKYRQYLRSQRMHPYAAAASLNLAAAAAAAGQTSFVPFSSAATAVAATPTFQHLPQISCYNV
The test is described as above.

For test [3], the target named is T3, Corto (endogenous, 70 kDa) (Drosophila melanogaster (endogenous in w1118 embryos)) (UniProt P41046).
T3 sequence: T2 sequence
The test is described as follows: co-IP; total extract of 0-14 h w1118 embryos in RIPA buffer, IP with rabbit anti-Corto (mock: preimmune serum), overnight at 4°C, blot with rat anti-CycG.

The target of test [4] is T4, Corto-Flag (Drosophila melanogaster) (UniProt P41046).
T4 sequence: T2 sequence
Nature of the test: co-IP; S2 cells co-transfected with pAct::Corto-Flag and pAct::Myc-CycG, extract in RIPA buffer, IP with anti-Flag or anti-Myc (mock: anti-HA), blot with anti-Myc or anti-Flag.

The target of test [5] is T5, GST-CycG (full-length CycG protein) (Drosophila melanogaster) (UniProt Q95TJ9).
T5 sequence: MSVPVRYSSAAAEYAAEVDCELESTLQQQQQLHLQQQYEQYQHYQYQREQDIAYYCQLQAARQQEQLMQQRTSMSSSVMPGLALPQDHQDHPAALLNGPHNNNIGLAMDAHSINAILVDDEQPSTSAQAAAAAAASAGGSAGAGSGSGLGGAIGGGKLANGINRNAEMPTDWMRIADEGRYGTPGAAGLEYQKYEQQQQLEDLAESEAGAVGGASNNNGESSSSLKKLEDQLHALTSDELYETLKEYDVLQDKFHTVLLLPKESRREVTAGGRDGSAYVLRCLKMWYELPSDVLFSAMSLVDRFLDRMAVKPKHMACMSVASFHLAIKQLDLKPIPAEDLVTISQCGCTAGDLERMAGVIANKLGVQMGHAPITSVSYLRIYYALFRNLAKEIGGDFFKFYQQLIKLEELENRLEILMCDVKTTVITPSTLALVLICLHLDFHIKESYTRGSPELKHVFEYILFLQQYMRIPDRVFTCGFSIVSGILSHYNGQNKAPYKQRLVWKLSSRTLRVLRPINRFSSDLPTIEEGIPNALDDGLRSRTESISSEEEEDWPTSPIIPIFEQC
Nature of the test: pull-down; GST-CycG fusion proteins on beads, in vitro translated 35S-Corto, autoradiography; only the target purified.

Test [6] has as its target T6, GST-CycG-215/566 (Drosophila melanogaster) (UniProt Q95TJ9).
T6 sequence: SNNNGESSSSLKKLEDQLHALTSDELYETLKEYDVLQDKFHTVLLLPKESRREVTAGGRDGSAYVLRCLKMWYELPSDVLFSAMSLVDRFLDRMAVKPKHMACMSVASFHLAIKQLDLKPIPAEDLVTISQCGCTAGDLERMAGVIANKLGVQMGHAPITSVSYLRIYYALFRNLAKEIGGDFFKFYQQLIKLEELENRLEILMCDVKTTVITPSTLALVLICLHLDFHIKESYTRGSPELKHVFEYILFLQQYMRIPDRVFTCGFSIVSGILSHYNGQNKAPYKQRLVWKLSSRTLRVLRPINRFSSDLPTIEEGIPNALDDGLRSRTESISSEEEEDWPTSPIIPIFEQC
The description is as above.

The target in test [7] is T7, Myc-CycG (Drosophila melanogaster) (UniProt Q95TJ9).
T7 sequence: T5 sequence
The test is described as follows: co-IP; S2 cells co-transfected with pAct::Corto-Flag and pAct::Myc-CycG, extract in RIPA buffer, IP with anti-Flag or anti-Myc (mock: anti-HA), blot with anti-Myc or anti-Flag.

This passage reports binding results from article PMC2243016.

No constants are given. Whether binding was seen depends on the method and setting. In cells and extracts the contact can be indirect. Some results given as binding are weak or reduced against the parent protein; the word gives no strength. For some of these results: Where a sequence is shown, tags or fusion partners need not be part of it.

B1: In vitro translated CycG protein (35S-labelled) (protein, UniProt Q95TJ9 1-566)
chain: T5 sequence
modifications: 35S label
Take B1: the binding entry in test [1] and in test [2] was “binds” each time.

B2: CycG, 68 kDa isoform (endogenous) (protein, UniProt Q95TJ9 1-566)
chain: T5 sequence
In the case of B2, the binding result in test [3] is reported as “binds”.

B3: Myc-CycG (protein, UniProt Q95TJ9 1-566)
chain: T5 sequence
As to B3, the binding entry in test [4] was “binds”.

B4: In vitro translated Corto protein (35S-labelled) (protein, UniProt P41046 1-550)
chain: T2 sequence
modifications: 35S label
In the case of B4, the binding result in test [5] is listed as “binds”; in test [6], “no binding”.

B5: Corto-Flag (protein, UniProt P41046 1-550)
chain: T2 sequence
As for B5, the binding entry in test [7] is on record as “binds”.
